{"sequences": {"note": "By UniProt entry, the sequences of proteins in these tests, tags left out.", "UniProt Q96P20": "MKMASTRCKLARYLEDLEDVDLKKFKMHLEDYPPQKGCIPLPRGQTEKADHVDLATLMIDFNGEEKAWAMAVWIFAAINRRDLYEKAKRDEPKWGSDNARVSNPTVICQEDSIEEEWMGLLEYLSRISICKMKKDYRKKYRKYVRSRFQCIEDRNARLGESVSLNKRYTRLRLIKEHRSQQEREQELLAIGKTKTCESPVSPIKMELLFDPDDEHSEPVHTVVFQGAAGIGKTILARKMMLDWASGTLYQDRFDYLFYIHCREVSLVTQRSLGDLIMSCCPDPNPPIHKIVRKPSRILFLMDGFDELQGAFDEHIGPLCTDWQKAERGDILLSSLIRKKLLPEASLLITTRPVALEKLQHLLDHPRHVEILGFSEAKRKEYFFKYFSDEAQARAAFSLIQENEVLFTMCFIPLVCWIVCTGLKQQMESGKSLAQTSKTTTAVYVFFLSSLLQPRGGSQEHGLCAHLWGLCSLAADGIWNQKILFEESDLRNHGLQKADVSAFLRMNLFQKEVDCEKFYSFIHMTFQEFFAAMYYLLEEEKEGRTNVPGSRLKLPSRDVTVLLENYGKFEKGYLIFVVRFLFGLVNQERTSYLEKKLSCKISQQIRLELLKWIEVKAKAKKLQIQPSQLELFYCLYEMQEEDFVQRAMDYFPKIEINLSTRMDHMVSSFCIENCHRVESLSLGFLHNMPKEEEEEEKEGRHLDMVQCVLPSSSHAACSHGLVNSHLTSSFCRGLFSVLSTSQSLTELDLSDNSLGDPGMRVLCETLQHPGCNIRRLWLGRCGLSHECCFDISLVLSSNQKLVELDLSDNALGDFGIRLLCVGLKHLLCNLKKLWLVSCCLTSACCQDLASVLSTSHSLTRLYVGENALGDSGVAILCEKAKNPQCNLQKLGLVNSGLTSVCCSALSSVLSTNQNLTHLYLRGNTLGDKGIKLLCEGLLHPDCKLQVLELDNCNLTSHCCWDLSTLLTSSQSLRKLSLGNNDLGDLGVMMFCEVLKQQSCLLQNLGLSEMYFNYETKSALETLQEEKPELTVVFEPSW"}, "source": "paper PMC12466843", "molecules": {"B1": {"name": "TRIM31, endogenous in murine BMDMs, Q8R0K2 1-507 (enzyme)", "chain": "MAGQPLACQLQEEVTCPICMEILQDPVTIDCGHNFCLQCISQVGKTSEKIQCPLCKLSVNKNTFRPNKLLASLAEKIQSMDPADIQAEKEDSRCQRHKEKLHYFCEQDGAFLCVVCRDSKDHKSHNVTLIDEAAQNYKVQIESQAQDLGQKDKKIIEEKKQGEGAIWAFRAQVDLEKLKIHEEFKLLRQRLDEEESFLLSRLDWLEQQGAKQLRQYVTVTEKQLNSLRKLTKSLKIRLQSSSMELLKDIKDALSRGKEFQFLNPNPVPEDLEKKCSEAKARHESIIKTLTELKDDMNAEGKRDKSAFMNSLNKEEKESWSLLQKNNSVLPTSVPVTLDKSSADPDLTFSQDLKKVTLYIVAGKASNRQAKPRPFYPFHCVRGSPGLSSGRQVWEAEIRGPSGGACIVGVVTELARGAQSQTVSAQSYIWALRISPSGCQPFTNCKAQEYLQVCLKKVGVYVNHDCGEVVFYDAITSKHIYTFQTSFDGKVFPLFGLQVACSHITLSP"}, "B2": {"name": "USP13 (ubiquitin-specific protease 13), endogenous in THP-1 cells (enzyme, UniProt Q92995 1-863)", "chain": "MQRRGALFGMPGGSGGRKMAAGDIGELLVPHMPTIRVPRSGDRVYKNECAFSYDSPNSEGGLYVCMNTFLAFGREHVERHFRKTGQSVYMHLKRHVREKVRGASGGALPKRRNSKIFLDLDTDDDLNSDDYEYEDEAKLVIFPDHYEIALPNIEELPALVTIACDAVLSSKSPYRKQDPDTWENELPVSKYANNLTQLDNGVRIPPSGWKCARCDLRENLWLNLTDGSVLCGKWFFDSSGGNGHALEHYRDMGYPLAVKLGTITPDGADVYSFQEEEPVLDPHLAKHLAHFGIDMLHMHGTENGLQDNDIKLRVSEWEVIQESGTKLKPMYGPGYTGLKNLGNSCYLSSVMQAIFSIPEFQRAYVGNLPRIFDYSPLDPTQDFNTQMTKLGHGLLSGQYSKPPVKSELIEQVMKEEHKPQQNGISPRMFKAFVSKSHPEFSSNRQQDAQEFFLHLVNLVERNRIGSENPSDVFRFLVEERIQCCQTRKVRYTERVDYLMQLPVAMEAATNKDELIAYELTRREAEANRRPLPELVRAKIPFSACLQAFSEPENVDDFWSSALQAKSAGVKTSRFASFPEYLVVQIKKFTFGLDWVPKKFDVSIDMPDLLDINHLRARGLQPGEEELPDISPPIVIPDDSKDRLMNQLIDPSDIDESSVMQLAEMGFPLEACRKAVYFTGNMGAEVAFNWIIVHMEEPDFAEPLTMPGYGGAASAGASVFGASGLDNQPPEEIVAIITSMGFQRNQAIQALRATNNNLERALDWIFSHPEFEEDSDFVIEMENNANANIISEAKPEGPRVKDGSGTYELFAFISHMGTSTMSGHYICHIKKEGRWVIYNDHKVCASERPPKDLGYMYFYRRIPS"}, "B3": {"name": "USP13, endogenous in murine macrophages (enzyme, UniProt Q5BKP2 1-858)", "chain": "MQRRGALFSVPGGGGKMAAGDLGELLVPHMPTIRVPRSGDRVYKNECAFSYDSPNSEGGLYVCMNTFLAFGREHVERHFRKTGQSVYMHLKRHMREKVRGASGGALPKRRNSKIFLDLDMDDDLNSDDYEYEDEAKLVIFPDHYEIALPNIEELPALVTIACDAVLSSKSPYRKQDPDTWENEVPVSKYANNLVQLDNGVRIPPSGWKCARCDLRENLWLNLTDGSVLCGKWFFDSSGGNGHALEHYRDMGYPLAVKLGTITPDGADVYSFQEEGPVSDPHLAKHLAHFGIDMLHTQGTENGLRDNDIKPRVSEWEVIQESGTKLKPMYGPGYTGLKNLGNSCYLSSVMQAIFSIPEFQRAYVGNLPRIFDYSPLDPTQDFNTQMTKLGHGLLSGQYSKPPVKSELIEQVMKEEHKPQQNGISPRMFKAFVSKSHPEFSSNRQQDAQEFFLHLVNLVERNRIGSENPSDVFRFLVEERIQCCQTRKVRYTERVDYLMQLPVAMEAATNKDELITYELMRREAEANRRPLPELVRAKIPFSACLQAFAEPDNVDDFWSSALQAKSAGVKTSRFASFPEYLVVQIKKFTFGLDWVPRKFDVSIDMPDLLDISHLRARGLQPGEEELPDISPPIVIPDDSKDRLMNQLIDPSDIDESSVMQLAEMGFPLEACRKAVYFTGNTGAEVAFNWIIVHMEEPDFAEPLAIPGYGGAGASVFGATGLDNQPPEEIVAIITSMGFQRNQAVQALQATNHNLERALDWIFSHPEFEEDSDFVIEMENNANANIVSEAKPEGPRVKDGSGMYELFAFISHMGTSTMSGHYVCHIKKEGRWVIYNDHKVCASERPPKDLGYMYFYRRIPS"}}, "key": {"[1]": {"biological_target": "T1, Flag-tagged human USP13 truncation mutant lacking the N-terminal region (amino acid residues 625 to 863) (human) (UniProt Q92995)", "T1 sequence": "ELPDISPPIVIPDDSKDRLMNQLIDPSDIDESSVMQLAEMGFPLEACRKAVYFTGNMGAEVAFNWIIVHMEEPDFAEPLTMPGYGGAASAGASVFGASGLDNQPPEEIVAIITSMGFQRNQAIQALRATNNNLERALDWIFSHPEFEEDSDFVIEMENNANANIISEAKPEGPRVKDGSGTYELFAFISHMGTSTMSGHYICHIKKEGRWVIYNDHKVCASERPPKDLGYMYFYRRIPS", "assay": "co-IP; HEK293T cells transfected with Myc-tagged human NLRP3 and Flag-tagged human USP13 or its truncation mutants; lysates immunoprecipitated with anti-Flag M2 beads; immunoblot (Fig. 1L)"}, "HA-human TRIM31 (human)": {"biological_target": "T2, HA-human TRIM31 (human) (UniProt Q9BZY9)", "T2 sequence": "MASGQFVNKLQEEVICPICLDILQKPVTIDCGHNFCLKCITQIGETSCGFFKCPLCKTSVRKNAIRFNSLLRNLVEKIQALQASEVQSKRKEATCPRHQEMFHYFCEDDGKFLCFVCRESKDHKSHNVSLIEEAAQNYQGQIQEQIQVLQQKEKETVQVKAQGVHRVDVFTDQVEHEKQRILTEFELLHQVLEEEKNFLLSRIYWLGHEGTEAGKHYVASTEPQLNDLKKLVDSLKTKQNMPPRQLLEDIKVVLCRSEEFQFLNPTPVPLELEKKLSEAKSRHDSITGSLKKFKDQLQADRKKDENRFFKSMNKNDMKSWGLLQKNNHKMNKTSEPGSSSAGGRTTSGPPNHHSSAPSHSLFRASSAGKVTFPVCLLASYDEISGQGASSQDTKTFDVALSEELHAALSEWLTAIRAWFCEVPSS", "assay": "co-IP; HEK293T cells transfected with the indicated plasmid combinations, with or without USP13 overexpression; lysates immunoprecipitated with anti-HA beads; immunoblot of NLRP3 and TRIM31 (Fig. 4E)"}, "GFP-human FBXL2 (human)": {"biological_target": "T3, GFP-human FBXL2 (human) (UniProt Q9UKC9)", "T3 sequence": "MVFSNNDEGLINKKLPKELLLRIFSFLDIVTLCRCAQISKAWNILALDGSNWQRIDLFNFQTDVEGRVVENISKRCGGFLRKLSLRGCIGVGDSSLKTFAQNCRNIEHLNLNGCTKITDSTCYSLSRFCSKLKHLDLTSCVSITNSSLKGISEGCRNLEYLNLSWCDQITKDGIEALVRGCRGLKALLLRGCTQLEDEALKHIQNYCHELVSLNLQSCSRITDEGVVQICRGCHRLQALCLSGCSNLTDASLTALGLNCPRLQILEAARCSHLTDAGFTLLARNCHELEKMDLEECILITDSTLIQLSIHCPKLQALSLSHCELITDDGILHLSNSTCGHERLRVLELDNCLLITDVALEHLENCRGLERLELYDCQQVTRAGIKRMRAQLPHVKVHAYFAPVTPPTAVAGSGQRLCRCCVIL", "assay": "co-IP; coimmunoprecipitation of NLRP3 and FBXL2 with or without USP13 overexpression (fig. S4A; legend not shown)"}, "[2]": {"biological_target": "T4, NLRP3, endogenous in murine macrophages (mouse (endogenous in BMDMs and PRMs)), Q8R4B8", "T4 chain": "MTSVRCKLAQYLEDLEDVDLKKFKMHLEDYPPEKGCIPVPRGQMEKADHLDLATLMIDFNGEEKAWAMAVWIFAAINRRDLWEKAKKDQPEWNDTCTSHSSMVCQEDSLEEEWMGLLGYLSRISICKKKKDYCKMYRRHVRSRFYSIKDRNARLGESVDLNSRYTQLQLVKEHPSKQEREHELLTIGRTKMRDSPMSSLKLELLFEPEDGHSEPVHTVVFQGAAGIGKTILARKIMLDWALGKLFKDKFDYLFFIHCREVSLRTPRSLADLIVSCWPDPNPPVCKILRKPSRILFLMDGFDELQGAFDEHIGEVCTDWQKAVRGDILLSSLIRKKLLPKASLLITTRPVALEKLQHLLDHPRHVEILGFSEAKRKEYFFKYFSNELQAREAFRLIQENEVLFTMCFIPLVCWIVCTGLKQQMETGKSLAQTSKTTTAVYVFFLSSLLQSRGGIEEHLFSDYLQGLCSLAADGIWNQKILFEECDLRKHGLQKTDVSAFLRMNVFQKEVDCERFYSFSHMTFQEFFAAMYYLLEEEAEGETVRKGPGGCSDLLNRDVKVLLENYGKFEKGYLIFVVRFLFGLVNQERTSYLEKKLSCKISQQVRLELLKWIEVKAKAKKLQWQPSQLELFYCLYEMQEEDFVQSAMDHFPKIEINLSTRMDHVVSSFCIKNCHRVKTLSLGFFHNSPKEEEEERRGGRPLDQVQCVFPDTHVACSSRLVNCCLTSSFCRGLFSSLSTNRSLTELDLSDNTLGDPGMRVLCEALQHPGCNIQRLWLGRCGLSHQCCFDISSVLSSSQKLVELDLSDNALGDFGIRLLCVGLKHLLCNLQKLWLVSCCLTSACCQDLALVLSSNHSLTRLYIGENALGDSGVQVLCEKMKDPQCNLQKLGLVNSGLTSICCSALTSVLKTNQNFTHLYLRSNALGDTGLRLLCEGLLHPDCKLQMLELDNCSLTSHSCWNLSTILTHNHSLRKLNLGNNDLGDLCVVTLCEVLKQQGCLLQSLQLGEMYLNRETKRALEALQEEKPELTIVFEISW", "assay": "co-IP; endogenous proteins in murine BMDMs, resting or treated with LPS (100 ng/ml) or Pam3CSK4 (200 ng/ml) for indicated times (Fig. 1D, E), or Usp13+/+ and Usp13-/- BMDMs treated with MG132 for 6 hours and then LPS (Fig. 4J); lysates immunoprecipitated with anti-NLRP3 antibody and protein A/G agarose; interaction weak in resting cells, increased by priming", "details": "remark: other sources report otherwise"}, "[3]": {"biological_target": "NLRP3, endogenous in THP-1 cells (human (endogenous in THP-1)) (UniProt Q96P20)", "assay": "co-IP; endogenous proteins in THP-1 cells treated with LPS for indicated times; lysates immunoprecipitated with a control IgG or anti-NLRP3 antibody (Fig. 1F, G)"}, "[4]": {"biological_target": "NLRP3, endogenous in murine macrophages (mouse (endogenous in BMDMs and PRMs)) (UniProt Q8R4B8)", "assay": "co-IP; endogenous proteins in murine BMDMs, resting or treated with LPS (100 ng/ml) or Pam3CSK4 (200 ng/ml) for indicated times (Fig. 1D, E), or Usp13+/+ and Usp13-/- BMDMs treated with MG132 for 6 hours and then LPS (Fig. 4J); lysates immunoprecipitated with anti-NLRP3 antibody and protein A/G agarose; interaction weak in resting cells, increased by priming"}, "[5]": {"biological_target": "NLRP3, endogenous in murine macrophages (mouse (endogenous in BMDMs and PRMs)) (UniProt Q8R4B8)", "assay": "co-IP; endogenous proteins in murine PRMs treated with LPS for indicated times; lysates immunoprecipitated with a control IgG or anti-NLRP3 antibody (Fig. 1F, G)"}}, "note": "These are yes or no findings as the source states them, for the method shown. Binding seen in cells or lysates may run through a third protein. Some binding calls cover weakened binding; strength is not graded here. For some of these results: Where a sequence is shown, tags or fusion partners need not be part of it."}
{"molecule": "Myc-tagged human NLRP3 (from UniProt Q96P20 1-1036)", "values": [{"measurement": "binding", "setting": "[1]", "result": "binds weakly"}, {"measurement": "binding", "setting": "HA-human TRIM31 (human)", "result": "binds"}, {"measurement": "binding", "setting": "GFP-human FBXL2 (human)", "result": "binds"}]}
{"molecule": "B1", "values": [{"measurement": "binding", "setting": "[2]", "result": "binds"}]}
{"molecule": "B2", "values": [{"measurement": "binding", "setting": "[3]", "result": "binds"}]}
{"molecule": "B3", "values": [{"measurement": "binding", "setting": "[4]", "result": "binds"}, {"measurement": "binding", "setting": "[5]", "result": "binds"}]}
